# Source: the supplement of paper PMC8728848
# The other results are listed elsewhere or left out.
# Legend:
# Assay in all cases: glycan array binding signal (z-score within array); higher = stronger binding
# Details in all cases: glycan notation: IUPAC condensed, linker removed
# [1] = biological target: Gal(b1-4)GlcNAc(b1-2)[Gal(b1-4)GlcNAc(b1-6)]Man(a1-6)[Gal(b1-4)GlcNAc(b1-2)Man(a1-3)]Man(b1-4)GlcNAc(b1-4)[Fuc(a1-6)]GlcNAc
# Procedure, shortened: (§1)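 Arrays were curated from the Consortium for Functional Glycomics database, 3228 in total, and kept only where the protein sequence was available. Binding is expressed as a within-array Z-score. This score was averaged across arrays of the same protein sequence at different concentrations or buffers and across linkers, and negative values can be read as non-binding.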
# [2] = biological target: Gal(b1-4)GlcNAc(b1-2)[Gal(b1-4)GlcNAc(b1-6)]Man(a1-6)[GlcNAc(b1-4)][Gal(b1-4)GlcNAc(b1-2)Man(a1-3)]Man(b1-4)GlcNAc(b1-4)GlcNAc
# Procedure, shortened: as §1
# [3] = biological target: Gal(b1-4)GlcNAc(b1-2)[Gal(b1-4)GlcNAc(b1-6)]Man(a1-6)[GlcNAc(b1-4)][Gal(b1-4)GlcNAc(b1-2)[Gal(b1-4)GlcNAc(b1-4)]Man(a1-3)]Man(b1-4)GlcNAc(b1-4)[Fuc(a1-6)]GlcNAc
# Procedure, shortened: as §1
# [4] = biological target: Gal(b1-4)GlcNAc(b1-3)Gal(b1-3)GalNAc
# Procedure, shortened: as §1
# [5] = biological target: Gal(b1-4)GlcNAc(b1-3)Gal(b1-3)GlcNAc
# Procedure, shortened: as §1
# [6] = biological target: Gal(b1-4)GlcNAc(b1-3)Gal(b1-4)Glc
# Procedure, shortened: as §1
# [7] = biological target: Gal(b1-4)GlcNAc(b1-3)Gal(b1-4)GlcNAc
# Procedure, shortened: as §1
# [8] = biological target: Gal(b1-4)GlcNAc(b1-3)Gal(b1-4)GlcNAc(b1-2)Man(a1-3)[Gal(b1-4)GlcNAc(b1-3)Gal(b1-4)GlcNAc(b1-2)Man(a1-6)]Man(b1-4)GlcNAc(b1-4)GlcNAc
# Procedure, shortened: as §1
# [9] = biological target: Gal(b1-4)GlcNAc(b1-3)Gal(b1-4)GlcNAc(b1-2)Man(a1-3)[Gal(b1-4)GlcNAc(b1-3)Gal(b1-4)GlcNAc(b1-2)Man(a1-6)]Man(b1-4)GlcNAc(b1-4)[Fuc(a1-6)]GlcNAc
# Procedure, shortened: as §1
# [10] = biological target: Gal(b1-4)GlcNAc(b1-3)Gal(b1-4)GlcNAc(b1-2)[Gal(b1-4)GlcNAc(b1-3)Gal(b1-4)GlcNAc(b1-6)]Man(a1-6)[Gal(b1-4)GlcNAc(b1-3)Gal(b1-4)GlcNAc(b1-2)Man(a1-3)]Man(b1-4)GlcNAc(b1-4)GlcNAc
# Procedure, shortened: as §1
# [11] = biological target: Gal(b1-4)GlcNAc(b1-3)Gal(b1-4)GlcNAc(b1-2)[Gal(b1-4)GlcNAc(b1-3)Gal(b1-4)GlcNAc(b1-6)]Man(a1-6)[Gal(b1-4)GlcNAc(b1-3)Gal(b1-4)GlcNAc(b1-2)Man(a1-3)]Man(b1-4)GlcNAc(b1-4)[Fuc(a1-6)]GlcNAc
# Procedure, shortened: as §1
# [12] = biological target: Gal(b1-4)GlcNAc(b1-3)Gal(b1-4)GlcNAc(b1-3)Gal(b1-4)GlcNAc
# Procedure, shortened: as §1
# [13] = biological target: Gal(b1-4)GlcNAc(b1-3)Gal(b1-4)GlcNAc(b1-3)Gal(b1-4)GlcNAc(b1-2)Man(a1-3)[Gal(b1-4)GlcNAc(b1-3)Gal(b1-4)GlcNAc(b1-3)Gal(b1-4)GlcNAc(b1-2)Man(a1-6)]Man(b1-4)GlcNAc(b1-4)GlcNAc
# Procedure, shortened: as §1
# [14] = biological target: Gal(b1-4)GlcNAc(b1-3)Gal(b1-4)GlcNAc(b1-3)Gal(b1-4)GlcNAc(b1-2)Man(a1-3)[Gal(b1-4)GlcNAc(b1-3)Gal(b1-4)GlcNAc(b1-3)Gal(b1-4)GlcNAc(b1-2)Man(a1-6)]Man(b1-4)GlcNAc(b1-4)[Fuc(a1-6)]GlcNAc
# Procedure, shortened: as §1
# [15] = biological target: Gal(b1-4)GlcNAc(b1-3)Gal(b1-4)GlcNAc(b1-3)Gal(b1-4)GlcNAc(b1-2)[Gal(b1-4)GlcNAc(b1-3)Gal(b1-4)GlcNAc(b1-3)Gal(b1-4)GlcNAc(b1-6)]Man(a1-6)[Gal(b1-4)GlcNAc(b1-3)Gal(b1-4)GlcNAc(b1-3)Gal(b1-4)GlcNAc(b1-2)Man(a1-3)]Man(b1-4)GlcNAc(b1-4)[Fuc(a1-6)]GlcNAc
# Procedure, shortened: as §1
# [16] = biological target: Gal(b1-4)GlcNAc(b1-3)Gal(b1-4)GlcNAc(b1-3)Gal(b1-4)GlcNAc(b1-3)Gal(b1-4)GlcNAc(b1-2)Man(a1-3)[Gal(b1-4)GlcNAc(b1-3)Gal(b1-4)GlcNAc(b1-3)Gal(b1-4)GlcNAc(b1-3)Gal(b1-4)GlcNAc(b1-2)Man(a1-6)]Man(b1-4)GlcNAc(b1-4)GlcNAc
# Procedure, shortened: as §1
# [17] = biological target: Gal(b1-4)GlcNAc(b1-3)Gal(b1-4)GlcNAc(b1-3)Gal(b1-4)GlcNAc(b1-3)Gal(b1-4)GlcNAc(b1-2)Man(a1-3)[Gal(b1-4)GlcNAc(b1-3)Gal(b1-4)GlcNAc(b1-3)Gal(b1-4)GlcNAc(b1-3)Gal(b1-4)GlcNAc(b1-2)Man(a1-6)]Man(b1-4)GlcNAc(b1-4)[Fuc(a1-6)]GlcNAc
# Procedure, shortened: as §1
# [18] = biological target: Gal(b1-4)GlcNAc(b1-3)Gal(b1-4)GlcNAc(b1-3)Gal(b1-4)GlcNAc(b1-3)Gal(b1-4)GlcNAc(b1-2)[Gal(b1-4)GlcNAc(b1-3)Gal(b1-4)GlcNAc(b1-3)Gal(b1-4)GlcNAc(b1-3)Gal(b1-4)GlcNAc(b1-6)]Man(a1-6)[Gal(b1-4)GlcNAc(b1-3)Gal(b1-4)GlcNAc(b1-3)Gal(b1-4)GlcNAc(b1-3)Gal(b1-4)GlcNAc(b1-2)Man(a1-3)]Man(b1-4)GlcNAc(b1-4)[Fuc(a1-6)]GlcNAc
# Procedure, shortened: as §1
# [19] = biological target: Gal(b1-4)GlcNAc(b1-3)Gal(b1-4)GlcNAc(b1-3)Gal(b1-4)GlcNAc(b1-3)Gal(b1-4)GlcNAc(b1-3)Gal(b1-4)GlcNAc(b1-2)Man(a1-3)[Gal(b1-4)GlcNAc(b1-3)Gal(b1-4)GlcNAc(b1-3)Gal(b1-4)GlcNAc(b1-3)Gal(b1-4)GlcNAc(b1-3)Gal(b1-4)GlcNAc(b1-2)Man(a1-6)]Man(b1-4)GlcNAc(b1-4)GlcNAc
# Procedure, shortened: as §1
# [20] = biological target: Gal(b1-4)GlcNAc(b1-3)Gal(b1-4)GlcNAc(b1-3)Gal(b1-4)GlcNAc(b1-3)Gal(b1-4)GlcNAc(b1-3)Gal(b1-4)GlcNAc(b1-2)Man(a1-3)[Gal(b1-4)GlcNAc(b1-3)Gal(b1-4)GlcNAc(b1-3)Gal(b1-4)GlcNAc(b1-3)Gal(b1-4)GlcNAc(b1-3)Gal(b1-4)GlcNAc(b1-2)Man(a1-6)]Man(b1-4)GlcNAc(b1-4)[Fuc(a1-6)]GlcNAc
# Procedure, shortened: as §1
# [21] = biological target: Gal(b1-4)GlcNAc(b1-3)Gal(b1-4)GlcNAc(b1-3)Gal(b1-4)GlcNAc(b1-3)Gal(b1-4)GlcNAc(b1-3)Gal(b1-4)GlcNAc(b1-2)[Gal(b1-4)GlcNAc(b1-3)Gal(b1-4)GlcNAc(b1-3)Gal(b1-4)GlcNAc(b1-3)Gal(b1-4)GlcNAc(b1-3)Gal(b1-4)GlcNAc(b1-6)]Man(a1-6)[Gal(b1-4)GlcNAc(b1-3)Gal(b1-4)GlcNAc(b1-3)Gal(b1-4)GlcNAc(b1-3)Gal(b1-4)GlcNAc(b1-3)Gal(b1-4)GlcNAc(b1-2)Man(a1-3)]Man(b1-4)GlcNAc(b1-4)[Fuc(a1-6)]GlcNAc
# Procedure, shortened: as §1
# [22] = biological target: Gal(b1-4)GlcNAc(b1-3)Gal(b1-4)GlcNAc(b1-3)Gal(b1-4)GlcNAc(b1-3)Gal(b1-4)GlcNAc(b1-3)Gal(b1-4)GlcNAc(b1-3)Gal(b1-4)GlcNAc(b1-2)Man(a1-3)[Gal(b1-4)GlcNAc(b1-3)Gal(b1-4)GlcNAc(b1-3)Gal(b1-4)GlcNAc(b1-3)Gal(b1-4)GlcNAc(b1-3)Gal(b1-4)GlcNAc(b1-3)Gal(b1-4)GlcNAc(b1-2)Man(a1-6)]Man(b1-4)GlcNAc(b1-4)GlcNAc
# Procedure, shortened: as §1
# [23] = biological target: Gal(b1-4)GlcNAc(b1-3)Gal(b1-4)GlcNAc(b1-3)GalNAc
# Procedure, shortened: as §1
# [24] = biological target: Gal(b1-4)GlcNAc(b1-3)Gal(b1-4)GlcNAc(b1-3)[Gal(b1-4)GlcNAc(b1-3)Gal(b1-4)GlcNAc(b1-6)]GalNAc
# Procedure, shortened: as §1
# [25] = biological target: Gal(b1-4)GlcNAc(b1-3)Gal(b1-4)GlcNAc(b1-6)[Gal(b1-3)]GalNAc
# Procedure, shortened: as §1
# [26] = biological target: Gal(b1-4)GlcNAc(b1-3)Gal(b1-4)[Fuc(a1-3)]GlcNAc(b1-3)Gal(b1-4)[Fuc(a1-3)]GlcNAc
# Procedure, shortened: as §1
# [27] = biological target: Gal(b1-4)GlcNAc(b1-3)GalNAc
# Procedure, shortened: as §1
# [28] = biological target: Gal(b1-4)GlcNAc(b1-3)[Fuc(a1-3)GlcNAc(b1-6)]Gal(b1-4)Glc
# Procedure, shortened: as §1
# [29] = biological target: Gal(b1-4)GlcNAc(b1-3)[Gal(b1-4)GlcNAc(b1-6)]Gal(b1-4)GlcNAc
# Procedure, shortened: as §1
# [30] = biological target: Gal(b1-4)GlcNAc(b1-3)[GlcNAc(b1-6)]Gal(b1-4)GlcNAc
# Procedure, shortened: as §1
# [31] = biological target: Gal(b1-4)GlcNAc(b1-6)Gal(b1-4)GlcNAc
# Procedure, shortened: as §1
# [32] = biological target: Gal(b1-4)GlcNAc(b1-6)GalNAc
# Procedure, shortened: as §1
# [33] = biological target: Gal(b1-4)GlcNAc(b1-6)[Gal(b1-3)]GalNAc
# Procedure, shortened: as §1
# [34] = biological target: Gal(b1-4)GlcNAc(b1-6)[Gal(b1-4)GlcNAc(b1-3)]GalNAc
# Procedure, shortened: as §1
# Gal(b1-4)GlcNAc6P = biological target: Gal(b1-4)GlcNAc6P
# Procedure, shortened: as §1
# Gal(b1-6)Gal = biological target: Gal(b1-6)Gal
# Procedure, shortened: as §1
# Gal3S(b1-3)GalNAc = biological target: Gal3S(b1-3)GalNAc
# Procedure, shortened: as §1
# Gal3S(b1-3)GlcNAc = biological target: Gal3S(b1-3)GlcNAc
# Procedure, shortened: as §1
binder,measurement,setting,value
"Apa (Mycobacterium tuberculosis), Rv1860 (protein) MHQVDPNLTRRKGRLAALAIAAMASASLVTVAVPATANADPEPAPPVPTTAASPPSTAAAPPAPATPVAPPPPAAANTPNAQPGDPNAAPPPADPNAPPPPVIAPNAPQPVRIDNPVGGFSFALPAGWVESDAAHFDYGSALLSKTTGDPPFPGQPPPVANDTRIVLGRLDQKLYASAEATDSKAAARLGSDMGEFYMPYPGTRINQETVSLDANGVSGSASYYEVKFSDPSKPNGQIWTGVIGSPAANAPDAGPPQRWFVVWLGTANNPVDKGAAKALAESIRPLVAPPPAPAPAPAEPAPAPAPAGEVAPTPTTPTPQRTLPA",glycan array binding signal (z-score),[1],0.339
same,glycan array binding signal (z-score),[2],-0.459
same,glycan array binding signal (z-score),[3],0.234
same,glycan array binding signal (z-score),[4],-0.355
same,glycan array binding signal (z-score),[5],-0.238
same,glycan array binding signal (z-score),[6],-0.013
same,glycan array binding signal (z-score),[7],-0.271
same,glycan array binding signal (z-score),[8],0.537
same,glycan array binding signal (z-score),[9],-0.067
same,glycan array binding signal (z-score),[10],0.171
same,glycan array binding signal (z-score),[11],-0.006
same,glycan array binding signal (z-score),[12],0.2
same,glycan array binding signal (z-score),[13],0.202
same,glycan array binding signal (z-score),[14],0.421
same,glycan array binding signal (z-score),[15],-0.207
same,glycan array binding signal (z-score),[16],-0.436
same,glycan array binding signal (z-score),[17],0.133
same,glycan array binding signal (z-score),[18],-0.157
same,glycan array binding signal (z-score),[19],-0.179
same,glycan array binding signal (z-score),[20],-0.184
same,glycan array binding signal (z-score),[21],-0.271
same,glycan array binding signal (z-score),[22],-0.256
same,glycan array binding signal (z-score),[23],0.324
same,glycan array binding signal (z-score),[24],0.481
same,glycan array binding signal (z-score),[25],-0.031
same,glycan array binding signal (z-score),[26],-0.425
same,glycan array binding signal (z-score),[27],-0.132
same,glycan array binding signal (z-score),[28],-0.139
same,glycan array binding signal (z-score),[29],-0.022
same,glycan array binding signal (z-score),[30],-0.402
same,glycan array binding signal (z-score),[31],-0.201
same,glycan array binding signal (z-score),[32],-0.355
same,glycan array binding signal (z-score),[33],-0.472
same,glycan array binding signal (z-score),[34],-0.158
same,glycan array binding signal (z-score),Gal(b1-4)GlcNAc6P,-0.455
same,glycan array binding signal (z-score),Gal(b1-6)Gal,0.532
same,glycan array binding signal (z-score),Gal3S(b1-3)GalNAc,0.357
same,glycan array binding signal (z-score),Gal3S(b1-3)GlcNAc,0.151
